In patent EP4711384A1 (WIO Bioscience Co., Ltd., dated 2026):

T1: human IL-18R1 and IL-18RAP on IL-18 Reporter HEK 293 Cells (human, UniProt Q13478 19-541; O95256 20-599)
T1 sequence (looked up) 1: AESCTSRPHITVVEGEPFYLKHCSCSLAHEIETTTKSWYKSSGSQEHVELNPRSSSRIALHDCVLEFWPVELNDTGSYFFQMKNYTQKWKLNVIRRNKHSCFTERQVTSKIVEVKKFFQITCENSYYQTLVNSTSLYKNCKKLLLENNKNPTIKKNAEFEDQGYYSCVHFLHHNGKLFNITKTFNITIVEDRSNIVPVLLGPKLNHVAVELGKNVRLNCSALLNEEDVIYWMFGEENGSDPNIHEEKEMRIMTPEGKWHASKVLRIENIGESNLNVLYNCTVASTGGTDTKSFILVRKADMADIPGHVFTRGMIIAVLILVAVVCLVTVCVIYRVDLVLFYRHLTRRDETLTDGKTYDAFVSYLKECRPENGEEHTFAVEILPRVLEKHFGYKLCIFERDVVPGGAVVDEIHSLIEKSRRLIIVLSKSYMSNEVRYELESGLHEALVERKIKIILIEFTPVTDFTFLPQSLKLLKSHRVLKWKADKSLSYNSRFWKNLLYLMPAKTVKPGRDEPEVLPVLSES
T1 sequence (looked up) 2: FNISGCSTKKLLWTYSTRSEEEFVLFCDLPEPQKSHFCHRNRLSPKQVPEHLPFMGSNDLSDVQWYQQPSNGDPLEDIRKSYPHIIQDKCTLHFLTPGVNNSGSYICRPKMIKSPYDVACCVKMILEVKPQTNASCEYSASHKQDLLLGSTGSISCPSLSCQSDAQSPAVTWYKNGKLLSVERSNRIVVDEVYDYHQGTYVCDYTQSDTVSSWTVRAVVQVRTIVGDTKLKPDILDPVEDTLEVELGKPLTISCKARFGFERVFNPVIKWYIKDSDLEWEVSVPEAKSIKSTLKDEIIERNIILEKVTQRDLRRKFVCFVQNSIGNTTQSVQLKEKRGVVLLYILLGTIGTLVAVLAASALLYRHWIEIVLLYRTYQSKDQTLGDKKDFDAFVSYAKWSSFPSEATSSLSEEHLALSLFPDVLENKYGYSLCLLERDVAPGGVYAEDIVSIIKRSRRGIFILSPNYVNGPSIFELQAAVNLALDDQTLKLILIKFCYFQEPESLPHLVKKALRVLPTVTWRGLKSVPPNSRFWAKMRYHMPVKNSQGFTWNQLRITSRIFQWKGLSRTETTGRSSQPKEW

T2: human IL-18RAP (full length, on transfected HEK293 cells) (human, UniProt O95256 20-599)
T2 construct: whole, on cells; also called IL-18RAP on the cell membrane surface
T2 sequence (looked up): T1 sequence (looked up) 2

T3: human IL-18R1 ECD-His (human, UniProt Q13478 22-329)
T3 sequence: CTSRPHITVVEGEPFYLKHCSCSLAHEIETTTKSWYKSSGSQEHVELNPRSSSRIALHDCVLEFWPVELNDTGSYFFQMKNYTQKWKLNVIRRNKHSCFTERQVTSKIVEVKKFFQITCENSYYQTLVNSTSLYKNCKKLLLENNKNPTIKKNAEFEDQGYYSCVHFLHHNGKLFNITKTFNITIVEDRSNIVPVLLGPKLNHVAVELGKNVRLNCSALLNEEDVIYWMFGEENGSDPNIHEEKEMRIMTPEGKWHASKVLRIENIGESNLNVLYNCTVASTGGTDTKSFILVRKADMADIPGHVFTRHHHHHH

T4: IL-18RAP ECD-mFc (human)
T4 chain: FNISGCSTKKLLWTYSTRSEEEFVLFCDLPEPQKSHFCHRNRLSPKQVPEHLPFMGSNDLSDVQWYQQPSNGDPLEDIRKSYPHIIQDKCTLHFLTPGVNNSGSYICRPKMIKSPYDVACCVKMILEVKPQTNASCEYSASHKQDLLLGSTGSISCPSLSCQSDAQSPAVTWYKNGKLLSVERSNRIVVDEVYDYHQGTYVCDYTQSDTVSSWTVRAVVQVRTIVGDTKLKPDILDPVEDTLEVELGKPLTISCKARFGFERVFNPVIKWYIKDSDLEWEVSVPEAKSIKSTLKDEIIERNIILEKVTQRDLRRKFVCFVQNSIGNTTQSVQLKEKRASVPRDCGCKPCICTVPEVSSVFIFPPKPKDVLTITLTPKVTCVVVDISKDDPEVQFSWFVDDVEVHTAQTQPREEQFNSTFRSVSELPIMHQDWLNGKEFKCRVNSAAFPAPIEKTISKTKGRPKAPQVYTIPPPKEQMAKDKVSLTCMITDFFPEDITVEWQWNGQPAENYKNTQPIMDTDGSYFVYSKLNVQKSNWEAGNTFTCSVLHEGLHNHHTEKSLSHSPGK

B1: hzWio-02-23-hFc (bispecific antibody)
chain: EVQLVESGGGLVQPGGSLRLSCAASGFTVHDMGWYRQAPGKECELVSTISSDASTYYADSVKGRFTISRDNAKNTLYLQMNSLRAEDTAVYYCAADSFTGLQLAECKADFGYWGQGTLVTVSSGGGGSEVQLVESGGGLVQPGGSLRLSCAASGFTYIPAYMGWFRQAPGKERERVASISSTEGSTTYADSVKGRFTISQDNSKNTLYLQMNSLRPEDTAVYYCAAYQFGAFRVWGQGTLVTVSS[human IgG1 Fc with changes not shown]
notes: also called hzWio-02-23 (Fc form); hzWio-02-23-L0-hFc
B2: hzWio-02-23-L5-hFc (bispecific antibody)
chain: EVQLVESGGGLVQPGGSLRLSCAASGFTVHDMGWYRQAPGKECELVSTISSDASTYYADSVKGRFTISRDNAKNTLYLQMNSLRAEDTAVYYCAADSFTGLQLAECKADFGYWGQGTLVTVSSGGGGSGEVQLVESGGGLVQPGGSLRLSCAASGFTYIPAYMGWFRQAPGKERERVASISSTEGSTTYADSVKGRFTISQDNSKNTLYLQMNSLRPEDTAVYYCAAYQFGAFRVWGQGTLVTVSS[human IgG1 Fc with changes not shown]
notes: also called hzWA23
B3: hzWio-02-23-L10-hFc (bispecific antibody)
chain: EVQLVESGGGLVQPGGSLRLSCAASGFTVHDMGWYRQAPGKECELVSTISSDASTYYADSVKGRFTISRDNAKNTLYLQMNSLRAEDTAVYYCAADSFTGLQLAECKADFGYWGQGTLVTVSSGSGSGGEVQLVESGGGLVQPGGSLRLSCAASGFTYIPAYMGWFRQAPGKERERVASISSTEGSTTYADSVKGRFTISQDNSKNTLYLQMNSLRPEDTAVYYCAAYQFGAFRVWGQGTLVTVSS[human IgG1 Fc with changes not shown]
B4: hzWio-02-01-hFc (bispecific antibody)
chain: EVQLVESGGGLVQPGGSLRLSCAASGTAYDNACMGWFRQAPGKEREGVASIHLRDRTYYADSVKGRFTISRDNSKNTLYLQMNSLRAEDTAVYYCASSNICNALNLQGNTYWGQGTLVTVSSGGGGSEVQLLESGGGLVQPGGSLRLSCAASGYTYGPYCMGWFRQAPGKEREGVAAVGGDARTWYGNSVKGRFTISRDNSKNTLYLQMNSLRAEDTAVYYCAADFDRTVCSDDIYDYTYRGQGTLVTVSS[human IgG1 Fc with changes not shown]
notes: also called hzWio-02-01 (Fc form)
B5: hzWio-02-03-hFc (bispecific antibody)
chain: EVQLVESGGGLVQPGGSLRLSCAASGNLYRDPCMGWFRQAPGKDREGVAAMNTGADSTFYARSVKGRFTISRDNAKNTLYLQMNSLRAEDTAVYYCAASRYCTERTYTWRYDYDYWGQGTLVTVSSGGGGSEVQLVESGGGLVQPGGSLRLSCAASGFTYIPAYMGWFRQAPGKERERVASIKTDASTTYADSVEGRFTISQDNAKNTLYLQMNSLRPEDTAVYYCAAYQFGAFRVWGQGTLVTVSS[human IgG1 Fc with changes not shown]
notes: also called hzWio-02-03 (Fc form)
B6: hzWio-02-05-hFc (bispecific antibody)
chain: EVQLVESGGGLVQPGGSLRLSCAASGNLYRDPCMGWFRQAPGKDREGVAAMNTGADSTFYARSVKGRFTISRDNAKNTLYLQMNSLRAEDTAVYYCAASRYCTERTYTWRYDYDYWGQGTLVTVSSGGGGSEVQLVESGGGLVQPGGSLRLSCAASGFTYIPAYMGWFRQAPGKERERVASISSTEGSTTYADSVKGRFTISQDNSKNTLYLQMNSLRPEDTAVYYCAAYQFGAFRVWGQGTLVTVSS[human IgG1 Fc with changes not shown]
notes: also called hzWio-02-05 (Fc form)
B7: hzWio-02-09-hFc (bispecific antibody)
chain: EVQLVESGGGLVQPGGSLRLSCAASGSTFDEYDMGWYRQAPGGKCELVSTISTIDASTYYADSVKGRFTISRDNSKNTLYLQMNSLRAEDTAVYYCEADDRGTWDRGGCWGQGTLVTVSSGGGGSEVQLVESGGGLVQPGGSLRLSCAASGFTYIPAYMGWFRQAPGKERERVASIKTDASTTYADSVEGRFTISQDNAKNTLYLQMNSLRPEDTAVYYCAAYQFGAFRVWGQGTLVTVSS[human IgG1 Fc with changes not shown]
notes: also called hzWio-02-09 (Fc form)
B8: hzWio-02-11-hFc (bispecific antibody)
chain: EVQLVESGGGLVQPGGSLRLSCAASGSTFDEYDMGWYRQAPGGKCELVSTISTIDASTYYADSVKGRFTISRDNSKNTLYLQMNSLRAEDTAVYYCEADDRGTWDRGGCWGQGTLVTVSSGGGGSEVQLVESGGGLVQPGGSLRLSCAASGFTYIPAYMGWFRQAPGKERERVASISSTEGSTTYADSVKGRFTISQDNSKNTLYLQMNSLRPEDTAVYYCAAYQFGAFRVWGQGTLVTVSS[human IgG1 Fc with changes not shown]
notes: also called hzWio-02-11 (Fc form)
B9: hzWA23Hm38 (bispecific antibody)
chain: EVQLVESGGGLVQPGGSLRLSCAASGFTVHDMGWYRQAPGKECELVSTISSHASTYYADSVKGRFTISRDNAKNTLYLQMNSLRAEDTAVYYCAADSFTGLQLAHCKADFGYWGQGTLVTVSSGGGGSGEVQLVESGGGLVQPGGSLRLSCAASGFTYIPAYMGWFRQAPGKERERVASISSTEGSTTYADSVKGRFTISQDNSKNTLYLQMNSLRPEDTAVYYCAAYQFGAFRVWGQGTLVTVSS[human IgG1 Fc with changes not shown]

biological target: T1, human IL-18R1 and IL-18RAP on IL-18 …; assay: cell-based or functional assay

EC50 | Top630nm | Binder
1.96 ng/mL | 1.37 | B1
1.89 ng/mL | 1.43 | B2
1.82 ng/mL | 1.48 | B3

biological target: T1, human IL-18R1 and IL-18RAP on IL-18 …; assay: cell-based or functional assay; remark: another data set of the same source

EC50 | Top630nm | Binder
2.2 ng/mL | 1.55 | B1
1.42 ng/mL | 1.46 | B4
1.14 ng/mL | 2.04 | B5
1.09 ng/mL | 1.3 | B6
2.18 ng/mL | 2.1 | B7
0.175 ng/mL | 1.55 | B8

biological target: T2, human IL-18RAP (full length, on …); assay: flow cytometry, transfected HEK293

binding result | Binder
binds | B1
binds | B4
binds | B5
binds | B6
binds | B7
binds | B8

biological target: T3, human IL-18R1 ECD-His; assay: sandwich ELISA, IL-18R1 ECD-His coated, IL-18RAP ECD-mFc detection

binding result | Binder
binds | B9

Biological target: T4, IL-18RAP ECD-mFc
Assay: as above

binding result | Binder
binds | B2
binds | B9
